53 compounds from PubChem BioAssay AID1645887 (National Center for Advancing Translational Sciences (NCATS), 2021) can be followed below.

Each structure is given as a SMILES string. Values joined by “and” are separate entries in the source; they are usually repeats but may differ in a detail not shown here. Equal values may be shown once. The whole screen tested about 16,000 compounds, of which about 40 (0.2%) were called active. Inconclusive results (about 1%) are left out. Calls follow the shape of the dose curve; as a rule, active = well fitted activation curve with a large enough effect; inconclusive = small, poorly fitted or top-dose-only effect, or another doubt; inactive = no such curve, though single readings can be large or run the other way. This is one part of the list.
% is scaled to controls: 0 for no effect and ±100 for the full control effect.

In the assay the target is Rap guanine nucleotide exchange factor 4 (Homo sapiens) (UniProt Q8WZA2). In words: Validation qHTS for agonist of cAMP-regulated guanine nucleotide exchange factor 4 (EPAC2).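 Also: exchange makes BODIPY-GDP fluorescence drop when released from Rap1B; series mostly up to about 150 µM.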 Particulars: EPAC2 Rap1B BODIPY-GDP exchange, fluorescence; activation: active compounds read high. Summed up: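 Fluorescent exchange assay: 100 nM EPAC2 with 250 nM RAP1B-BODIPY-GDP and 50 uM GDP; compound added, 5 min at room temperature, then read (ex 480/em 540 nm) every 5 min for 30 min. Normalized to 6.5 mM cAMP agonist control.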
UniProt Q8WZA2, sequence (Q8WZA2 whole entry, looked up): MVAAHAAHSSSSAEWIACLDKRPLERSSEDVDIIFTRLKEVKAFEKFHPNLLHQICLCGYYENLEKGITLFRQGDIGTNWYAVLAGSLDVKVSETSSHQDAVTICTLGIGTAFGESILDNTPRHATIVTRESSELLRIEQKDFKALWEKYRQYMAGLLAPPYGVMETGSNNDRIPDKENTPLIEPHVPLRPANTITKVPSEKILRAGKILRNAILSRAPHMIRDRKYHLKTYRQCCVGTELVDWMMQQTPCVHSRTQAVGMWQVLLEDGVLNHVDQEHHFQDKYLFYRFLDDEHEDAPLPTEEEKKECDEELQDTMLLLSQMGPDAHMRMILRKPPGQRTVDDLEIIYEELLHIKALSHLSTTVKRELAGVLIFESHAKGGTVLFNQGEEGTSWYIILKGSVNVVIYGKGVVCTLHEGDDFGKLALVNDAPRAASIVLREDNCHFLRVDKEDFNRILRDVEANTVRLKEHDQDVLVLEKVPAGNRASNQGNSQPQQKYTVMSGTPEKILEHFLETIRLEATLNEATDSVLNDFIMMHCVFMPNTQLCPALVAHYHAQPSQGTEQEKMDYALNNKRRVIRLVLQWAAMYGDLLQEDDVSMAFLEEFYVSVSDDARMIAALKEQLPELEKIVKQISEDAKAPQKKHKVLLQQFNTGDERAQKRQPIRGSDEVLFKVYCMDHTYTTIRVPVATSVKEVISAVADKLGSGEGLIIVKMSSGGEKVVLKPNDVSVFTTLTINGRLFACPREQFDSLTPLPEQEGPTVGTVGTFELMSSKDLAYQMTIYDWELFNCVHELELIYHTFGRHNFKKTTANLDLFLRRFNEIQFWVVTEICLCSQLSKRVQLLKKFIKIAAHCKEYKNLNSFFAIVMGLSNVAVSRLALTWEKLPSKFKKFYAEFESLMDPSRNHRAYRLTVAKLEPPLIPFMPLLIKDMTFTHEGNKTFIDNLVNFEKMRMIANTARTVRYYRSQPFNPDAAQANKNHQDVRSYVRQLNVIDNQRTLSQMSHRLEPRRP
In general terms: Quantitative high-throughput screening tests each substance at several concentrations.
`Cc1ccc(C)c(CN2CCC3(CCC(CNC(=O)c4ccnn4C)O3)CC2)c1` (stereo not drawn): the activation is inactive: -10.1%.

Take `COCCCOc1ccnc(CS(=O)c2nc3ccccc3[nH]2)c1C` (stereo not drawn): the activation is inactive: -4.55%.

Turning to `CCOC(=O)N1CCN(Cc2ccc3c(c2)CN(C(=O)c2ccc(C#CC(C)(C)O)o2)CCO3)CC1`, the activation is inactive: -4.84%.

In the case of `CC(=O)N=c1sc(S(N)(=O)=O)nn1C`, the activation was inactive: -7.49% and inactive: -3.33%.

On to `O=c1cnc2cnc(Oc3ccccc3)nc2n1C[C@H]1CCCO1`, for which the activation was inactive: -1.55%.

For `Cc1ncc2c(c1CNC(=O)CN1CCCCC1)CCN(C(=O)c1ccc(F)cc1Cl)C2`, the activation is inactive: -1.78%.

In the case of `CCC1OC(=O)C(C)[C@@H](O[C@H]2C[C@@](C)(OC)C(O)C(C)O2)C(C)[C@@H](O[C@@H]2OC(C)CC(N(C)C)C2O)[C@](C)(O)CC(C)/C(=N\OCOCCOC)[C@H](C)C(O)[C@]1(C)O` (stereo partly drawn), the activation is inactive: -5.05%.

Consider `COc1ccccc1CC(=O)NCC1Cc2cc(F)cc(-c3cncnc3)c2O1` (stereo not drawn), for which the activation was inactive: -2.32%.

Turning to `COc1ccccc1-c1ccnc(-n2ncc(C(=O)N[C@H]3CCCCNC3=O)c2C2CC2)n1`, the activation is inactive: -7.53%.

`CC(=O)N1CCC2(CC1)CCN(c1ccc(-c3ccccc3)cc1)CC2`: the activation is inactive: -12.3%.

As to `c1cncc(-c2nccc(-n3ccnc3)n2)c1`, the activation was inactive: -10.7%.

Turning to `Cc1ncc2c(c1CNC(=O)c1cncs1)CCN(C(=O)c1ccc(-c3ccccc3)cc1)C2`, the activation is inactive: 6.95%.

Take `CC1(COc2ccc(CC3SC(=O)NC3=O)cc2)CCCCC1` (stereo not drawn): the activation was inactive: -31.7% and inactive: -7.95%.

For `COc1ccc2c(c1)NC(=O)C2CC(=O)N1CCOc2c(cc(-c3cnc4ccccc4c3)cc2OC)C1` (stereo not drawn), the activation was inactive: -12.4%.

Turning to `CC(CNC(=O)c1cccnc1)NC(=O)c1cccnc1` (stereo not drawn), the activation is inactive: -6.69%.

`CC(C)C1=CC2=CCC3[C@@](C)(CCC[C@@]3(C)C(=O)O)C2CC1` (stereo partly drawn): the activation was inactive: -18.3%.

Consider `O=C(C[n+]1ccccc1Cl)c1cccc([N+](=O)[O-])c1`, for which the activation was inactive: 3.13%.

Regarding `CC(C)SC(=N)N`, the activation was inactive: -9.4%.

For `CC(C)CN1CCC(=O)N([C@H](CO)c2ccccc2)CC1`, the activation is inactive: -27.1%.

With `COc1ccc2[nH]cc(CCNc3cc(-c4ccccc4OC)ncn3)c2c1`, the activation was inactive: 9.65%.

Regarding `Cc1noc(C)c1-c1ccc2ncnc(NCc3cccnc3)c2c1`, the activation is inactive: -6.34%.

Consider `O=c1c(-c2cc(F)cc(F)c2)nc2cncnc2n1Cc1ccccc1`, for which the activation was inactive: -2.9%.

`CC[C@]12CCCN3CCc4c(n(c5ccccc45)C(=O)C1)[C@H]32`: the activation is inactive: -1.18%.

`CS(=O)(=O)N1CCC2(CC1)CN(c1ccncc1)C2`: the activation was inactive: -5.96%.

Regarding `O=C(O)CCC(=O)c1ccc(-c2ccccc2)cc1`, the activation was inactive: 0.806% and inactive: 7.99%.

For the compound `COc1cc(=O)n2c(c1C(=O)NC(C)c1ccco1)CCN(Cc1ccc3nsnc3c1)CC2` (stereo not drawn), the activation is inactive: -5.03%.

Take `CCNc1ncc2nc(-c3cc(F)cc(F)c3)c(=O)n(C)c2n1`: the activation was inactive: -15.9%.

As to `COc1ccc(CN2Cc3cccc4c3[C@@H](CC2=O)[C@H](O)[C@H](O)C4)cc1`, the activation was inactive: -11.8%.

Turning to `Cc1ccc(C2(O)CCN(CCCC(=O)c3ccc(F)cc3)CC2)cc1`, the activation is inactive: -13.8%.

As to `COc1ccc(/C=C/C(=O)O)cc1`, the activation was inactive: -15.7%.

For `COc1ccc(-c2coc3cc(O)ccc3c2=O)c(OC)c1`, the activation is inactive: -12.6%.

For `O=C(c1cnccn1)N1CCC2(CC1)CN(c1cccc(-c3ccccc3)c1)C2`, the activation was inactive: -12.6%.

As to `Cc1cc(-c2cc(F)cc3c2OC(CNC(=O)CCn2cncn2)C3)ccc1F` (stereo not drawn), the activation was inactive: 3.89%.

Turning to `COc1ccc(C(=O)N2CCC[C@@]3(CCN(c4ccncc4)C3)C2)cc1`, the activation is inactive: -3.22%.

Consider `N[C@@H](Cc1ccc(O)c(O)c1)C(=O)O`, for which the activation is inactive: -8.02% and inactive: -36.6%.

For `O=C1NC2CCCCN2C12CCN(CCCN1c3ccccc3CCc3ccc(Cl)cc31)CC2` (stereo not drawn), the activation was inactive: -12.9%.

In the case of `CC(=O)Nc1cc(C(=O)N2CCCC(C)C2)cc2ncn(CCc3ccccn3)c12` (stereo not drawn), the activation is inactive: -14.3%.

For the compound `C[C@@H]1[C@H](c2ccccc2)OCCS(=O)(=O)N1Cc1ccccc1F`, the activation is inactive: -33.6%.

`CCCCc1ncc(/C=C(\Cc2cccs2)C(=O)O)n1Cc1ccc(C(=O)O)cc1`: the activation was inactive: -7.29%.

As for `CCC(C)C(NC)C(=O)O` (stereo not drawn), the activation is inactive: -5.09%.

As for `O=C1NC(=O)C(Cc2ccccc2F)(C2CCN(Cc3cccn3-c3cccnc3)CC2)N1` (stereo not drawn), the activation is inactive: 4.58%.

For the compound `[N-]=[N+]=Nc1nc2c(N)ncnc2n1C1OC(CO)C(O)C1O` (stereo not drawn), the activation was inactive: 4.18%.

In the case of `CN1CCN2c3ccccc3Cc3ccccc3C2C1` (stereo not drawn), the activation is inactive: -11.6% and inactive: -18.1% and inactive: -3.85%.

For the compound `COC1OC2COC(c3ccccc3)OC2C(O)C1O` (stereo not drawn), the activation was inactive: 11.4%.

With `CN(C)C(=O)c1ccc(-c2ccc3ncnc(N4CCC(C(=O)O)CC4)c3c2)cc1`, the activation was inactive: -10.4%.

On to `O=C(c1ccco1)N1CCC[C@@]2(CCN(C(c3ccccc3)c3ccccc3)C2)C1`, for which the activation is inactive: -23.6%.

As for `CN(C)C(=O)CCC(=O)NCC1Cc2cccc(-c3ccccc3C(F)(F)F)c2O1` (stereo not drawn), the activation is inactive: -9.97%.

Take `COc1ccc(C(=O)N2CCC3(CCCN(C(=O)Nc4cccc(F)c4)C3)CC2)cc1`: the activation was inactive: -8.61%.

As for `CCCCCCCCOc1ccccc1C(=O)Nc1ccc(C(=O)OCC[N+](C)(CC)CC)cc1`, the activation was inactive: 3.73%.

Turning to `COCc1c(C(=O)NC2CCCCCC2)cnn1-c1nccc(-c2cc(C)sc2C)n1`, the activation was inactive: -0.549%.

`C[C@H](CCC(=O)O)[C@H]1CC[C@H]2[C@@H]3C(=O)C[C@@H]4CC(=O)CC[C@]4(C)[C@H]3CC(=O)[C@]12C`: the activation was inactive: -16.8%.

For `COc1cccc(Nc2ncc3nc(CCc4ccccc4)c(=O)n(C)c3n2)c1`, the activation is inactive: -21.6%.

Take `CO[C@H]1C[C@H](O[C@@H]2/C(C)=C/C[C@@H]3C[C@@H](C[C@]4(CC[C@H](C)[C@@H](C5CCCCC5)O4)O3)OC(=O)[C@@H]3C=C(C)/C(=N/O)[C@H]4OC/C(=C\C=C\[C@@H]2C)[C@]43O)O[C@@H](C)[C@@H]1O`: the activation was inactive: -41.8%.
